# In PubChem BioAssay AID1745845 (National Center for Advancing Translational Sciences (NCATS), 2022):
# The whole screen tested about 360,000 compounds, of which about 2,600 (0.72%) were called active. Inconclusive means that the source gave no clear call. Such entries were picked first, then a sample of the others. Calls come from the whole dose curve; as a rule, active = well fitted inhibition curve with a large enough effect; inconclusive = small, poorly fitted or top-dose-only effect; inactive = no such curve, though single readings can be large or run the other way. Potencies of inconclusive entries are doubtful fits and often do not repeat.
# Test: Primary qHTS for Inhibitors of ATXN expression; note: nearly all actives have a fitted effect of over 55% in size
# Settings: HEK-293 ATXN2-luciferase reporter, luminescence, 24 h; activity change, negative = inhibition: at 57 µM (top of the series)
# Method in brief: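 ATXN2-luciferase reporter cells (luciferase flanked by upstream and downstream ATXN2 gene portions) were treated 24 h at 37 °C with compounds at up to 57 uM. SteadyGlo luminescence gave expression; GF-AFC fluorescence gave viability.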
# % is set by controls: 0 for no effect and ±100 for the full control effect; potency is the fitted concentration of half-maximal effect; tags give direction and shape of the fitted curve.
SMILES,Potency,"activity change, negative = inhibition"
CCOc1ccc(NC(=O)c2cnc(Nc3ccccc3OC)c3ccccc23)cc1,inactive,–
NC(=O)c1cc([N+](=O)[O-])ccc1NCc1ccc(N)cc1,active: 3.55 µM,–
OCCN1CCN(C2CCC(c3ccc(F)cc3)c3ccc(F)cc32)CC1 (configuration not stated),active: 25.1 µM,–
Cc1ccc(NC(=S)NC(=O)c2ccc(F)cc2)cc1S(=O)(=O)Nc1ccccc1Cl,"inconclusive: 33.6 µM [inhibitor, single point]",–
CCOC(=O)[C@]12CCCC=C1N(Cc1ccc(Cl)cc1Cl)C(=O)[C@H](CC(=O)NCc1cccs1)C2,"inconclusive: 39.8 µM [inhibitor, single point]",–
O=C(O)c1cccc(Nc2ncnc3scc(-c4ccccc4)c23)c1,inactive,–
COc1cccc(-c2ncc3ccccc3c2COC(=O)N2CCCCC2)c1,inactive,–
CCN(CC)C1CCCCC1NS(=O)(=O)c1ccc(Cl)cc1 (configuration not stated),inactive,–
CCCCN(CCCC)C(=O)C1CCN(S(=O)(=O)c2cccc3nsnc23)CC1,"inconclusive: 14.1 µM [inhibitor, partial curve, poor fit]",–
Cc1ccc(Cl)cc1-n1ncc2c(N3CCCCCC3)ncnc21,"inconclusive: 39.8 µM [inhibitor, single point]",–
CCc1ccc(S(=O)(=O)/N=C2\C=C(Nc3cccc(C(=O)O)c3)C(=O)c3ccccc32)cc1,active: 31.6 µM,–
O=C1C=CC(=O)N1Cc1ccccc1,"inconclusive: 39.8 µM [inhibitor, single point]",–
CNC1CCC(N(Cc2cccc(-c3ccncc3)c2)C(=O)c2sc3ccccc3c2Cl)CC1 (configuration not stated),active: 24.3 µM,–
CC(Sc1nc(N)c2c3c(sc2n1)CSC(C)(C)C3)C(=O)Nc1ccccc1 (configuration not stated),inactive,–
O=C(Nc1cccc(-c2nnc(-c3ccccc3)o2)c1)c1ccco1,inactive,–
CCC(C)(C)n1nnnc1C(C(C)C)N(Cc1ccco1)Cc1cc2cc3c(cc2[nH]c1=O)OCO3 (configuration not stated),"inconclusive: 15.8 µM [inhibitor, partial curve, poor fit]",–
CCN(CCCNC(=O)c1cc2c(Cl)nc3ccccc3c2s1)Cc1ccccc1,"inconclusive: 20 µM [inhibitor, partial curve, poor fit]",–
O=C(CCN1C(=O)/C(=C\c2ccccc2Cl)SC1=S)Nc1cccnc1,inactive,–
O=C(Nc1cccc(-c2cn3ccccc3n2)c1)c1cc2ccccc2oc1=O,"inconclusive: 39.8 µM [inhibitor, single point]",–
COc1cc2c(cc1OC)C1=C(C#N)CCC(=O)N1CC2,"inconclusive: 7.08 µM [inhibitor, single point]",–
COc1ccc(OC)c(NC(=O)C(CC(C)C)NC(=O)C2CCCCC2)c1 (configuration not stated),"inconclusive: 28.2 µM [inhibitor, partial curve, poor fit]",–
COc1ccc(CC(=O)NCCc2csc3nc(-c4ccccc4F)nn23)cc1,inactive,–
CCn1c(SCC(=O)Nc2cccc(C)c2)nc2nc3c(cc2c1=O)COC(C)(C)C3,"inconclusive: 2.12 µM [inhibitor, partial curve, poor fit]",–

SMILES,Potency,"activity change, negative = inhibition"
CSc1ncc(C(=O)N2CCN(c3cc(Cl)ccc3C)CC2)c(C)n1,"inconclusive: 39.8 µM [inhibitor, single point]",–
COc1ccc(C(=O)Nn2c(SCC(=O)c3ccccc3)nc3ccccc3c2=O)cc1,"inconclusive: 15.8 µM [inhibitor, single point]",–
S=c1[nH]cc(-c2ccc(Cl)cc2)n1Cc1ccccc1,inactive,–
CCOc1cc(/C=N/NC(=O)Cn2nc([N+](=O)[O-])cc2C)ccc1OCc1ccc(F)cc1,"inconclusive: 39.8 µM [inhibitor, single point]",–
CC(=O)NC(c1ccccc1)c1cc(Cl)c2cccnc2c1O (configuration not stated),active: 7.94 µM,–
COc1ccccc1C(C[N+](=O)[O-])c1c[nH]c2ccccc12 (configuration not stated),"inconclusive: 29.9 µM [inhibitor, single point]",–
COc1ccc(C(=O)Nc2ccc(Cl)cc2C(=O)NCCN2CCOCC2)cc1,inactive,–
CCN(CC)C(=O)c1cc2cc(Br)ccc2oc1=O,inactive,–
CCNS(=O)(=O)c1ccc(NC(=O)Nc2cccc(C(F)(F)F)c2)cc1,"inconclusive: 17.8 µM [inhibitor, single point]",–
Cc1ccc(Cn2c(CN3CCC(C(=O)NCCc4ccccc4)CC3)cc3ccccc32)cc1,"inconclusive: 17.8 µM [inhibitor, single point]",–
COc1ccc(CNC(=O)C2CCN(S(=O)(=O)N3CCC4(CC3)OCCO4)CC2)c(OC)c1,inactive,–
Cc1ccc(NC(=S)NC2CC3CCC(C2)N3Cc2ccco2)cc1C (configuration not stated),inactive,–
COc1cc(/C=N/NC(=O)CCC(=O)Nc2ccc(C)cc2)ccc1O,"inconclusive: 0.212 µM [inhibitor, full curve, poor fit]",–
O=C(Nc1ccc(OC(F)(F)F)cc1)C1CCN(S(=O)(=O)c2cccs2)CC1,"inconclusive: 25.1 µM [inhibitor, single point]",–
CCCCC(=O)N(C)c1c(CC)nc2c(OCC3CCCCC3)cccn12,"inconclusive: 28.2 µM [inhibitor, partial curve]",–
Cc1ccc(NC(=O)CNC(=O)c2ccc(OC(F)F)cc2)cc1S(=O)(=O)N1CCCCCC1,"inconclusive: 39.8 µM [inhibitor, single point]",–
COc1cc(NS(=O)(=O)c2ccc(OC)c(C)c2C)c(OC)cc1Cl,"inconclusive: 8.91 µM [inhibitor, partial curve, poor fit]",–
Cc1ccc(NC(=S)NC(=O)c2ccc(-c3ccc(Cl)cc3)o2)c(O)c1,inactive,–
COC(=O)c1ccc2nc(-c3ccco3)c(Cc3ccccc3)n2c1,inactive,–
OCCC1CN(Cc2cnc(-c3ccccc3)s2)CCN1Cc1ccccc1 (configuration not stated),inactive,–
CCN(CC)c1ccc(/C=N/N2CCN(Cc3ccccc3Cl)CC2)cc1,inactive,–
CC(C)CC1C(=O)N(Cc2cn(Cc3ccco3)nn2)CCS(=O)(=O)N1Cc1ccc(-c2ccc(F)nc2)cc1 (configuration not stated),"inconclusive: 31.6 µM [inhibitor, partial curve, poor fit]",–
COc1cc(NC(=O)c2c(C)oc3c2C2=NCCN2C=N3)cc(OC)c1OC,inactive,–

SMILES,Potency,"activity change, negative = inhibition"
CCc1ccc(N2C(=O)c3sc4nnc(-c5ccccc5)c(=O)n4c3C2=O)cc1,"inconclusive: 20 µM [inhibitor, partial curve]",–
CC(C)c1ccc(NC(=O)c2ccc(-c3ccnn3C)c3ccoc23)cc1,"inconclusive: 28.2 µM [inhibitor, single point]",–
CC(C)(C)OC(=O)N1CCC(c2c(C(=O)NCCc3ccccc3)cnn2-c2ccc(F)cc2)CC1,"inconclusive: 39.8 µM [inhibitor, partial curve, poor fit]",–
C#C[C@]1(OC(C)=O)CC[C@H]2[C@@H]3CCC4=C[C@@H](OC(C)=O)CC[C@@H]4[C@H]3CC[C@@]21C,"inconclusive: 28.2 µM [inhibitor, partial curve, poor fit]",–
C#CCOc1c(Br)cc(/C=N\NC(=O)CN2CCOCC2)cc1OCC,inactive,–
COc1ccc(-c2[nH]c(-c3cccc(OC)c3)nc2SCC(=O)NC2CCCC2)cc1,"inconclusive: 37.7 µM [inhibitor, single point]",–
O=C1/C(=C/c2ccc(F)cc2)SC(=S)N1CCCC(=O)N1CCCCC1CCO (configuration not stated),"inconclusive: 39.8 µM [inhibitor, single point]",–
NC(c1csc(Nc2cc(Oc3ccccc3)ncn2)n1)C1CCCCC1 (configuration not stated),"inconclusive: 35.5 µM [inhibitor, single point]",–
CCc1ccccc1NC(=O)C1(C)Cc2ccccc2C(=O)O1 (configuration not stated),inactive,–
CCCCC[C@@H](C)N1C[C@H](COCc2ccccc2)Oc2cc(N3CCC[C@H]3CO)ccc2S1(=O)=O,"inconclusive: 7.94 µM [inhibitor, full curve]",–
Cc1ccc(S(=O)(=O)N2CCOCC2)cc1C(=O)Nc1nc(-c2ccccn2)cs1,"inconclusive: 8.91 µM [inhibitor, partial curve]",–
CN(CC(=O)NCc1ccccc1)S(=O)(=O)c1ccc2[nH]c3c(c2c1)CCCC3,"inconclusive: 35.5 µM [inhibitor, single point]",–
CCCCCCNC(=O)O[C@@]12CN(S(=O)(=O)c3ccc(C)cc3)C[C@]1(O)Cn1c(=O)n(CCCCCC)c(=O)n1C2,"inconclusive: 39.8 µM [inhibitor, single point]",–
O=C(C#Cc1ccccc1)c1ccc([N+](=O)[O-])cc1,"inconclusive: 25.1 µM [inhibitor, single point]",–
Cc1c(CC(=O)NCCCC(=O)O)c(=O)oc2cc3c(cc12)CCC(C)(C)O3,active: 3.16 µM,–
CC(C)C1C(=O)N(Cc2cn(CCC3OCCCO3)nn2)CCS(=O)(=O)N1Cc1ccc(-c2ccc(Cl)c(Cl)c2)cc1 (configuration not stated),"inconclusive: 28.2 µM [inhibitor, single point]",–
Cc1ccc(Nc2ncnc3ccccc23)cc1,–,inactive: 12.4% [at 11.3 µM]
CC(=O)Nc1cccc(-c2ccnc3c2CC(C)(C(=O)Nc2cccc(C(F)(F)F)c2)O3)c1 (configuration not stated),"inconclusive: 39.8 µM [inhibitor, single point]",–
CCCCOC(=O)CCc1n[nH]c(=O)[nH]c1=O,"inconclusive: 39.8 µM [inhibitor, partial curve, poor fit]",–
CCOC(=O)CSc1nc2ccc(NC(=O)c3ccc(Cl)cc3)cc2s1,inactive,–
CC(=O)N1CCc2cc(S(=O)(=O)NCCC3=CCCCC3)ccc21,"inconclusive: 11.2 µM [inhibitor, partial curve, poor fit]",–
